Experimental data: publication PMC12203670
Results are given in words; binding and its absence hold for the method and conditions named. Some entries that bind do so weakly or less than the wild type. Tags and fused reporters may be left off the sequences shown.

Sequences of proteins named here, by UniProt entry; tags and fusion partners are left off.
UniProt P52480: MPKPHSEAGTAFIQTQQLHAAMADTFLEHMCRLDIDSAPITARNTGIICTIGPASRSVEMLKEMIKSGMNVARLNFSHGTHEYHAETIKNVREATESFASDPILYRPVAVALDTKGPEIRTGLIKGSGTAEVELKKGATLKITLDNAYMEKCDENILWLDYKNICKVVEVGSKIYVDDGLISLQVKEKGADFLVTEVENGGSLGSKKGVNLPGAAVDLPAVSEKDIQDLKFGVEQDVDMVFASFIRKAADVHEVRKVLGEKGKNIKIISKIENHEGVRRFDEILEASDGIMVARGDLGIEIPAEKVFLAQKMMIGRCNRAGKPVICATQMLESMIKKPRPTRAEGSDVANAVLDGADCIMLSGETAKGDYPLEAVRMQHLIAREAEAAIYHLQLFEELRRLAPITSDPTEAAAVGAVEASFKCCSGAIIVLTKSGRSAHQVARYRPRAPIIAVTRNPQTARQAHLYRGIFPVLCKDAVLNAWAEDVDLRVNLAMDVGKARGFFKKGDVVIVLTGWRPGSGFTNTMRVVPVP

Biological target: GST-PKM2, purified recombinant (UniProt P52480)
Test: pull-down; GST pull-down with purified recombinant GST-PKM2 and His-MTX2; both purified

B1: polyhistidine-MTX2, purified recombinant (protein, UniProt O88441 1-263)
chain: MSLVAEAFVSQIAATEPWPENATLYQQLRGEQILLSDNAASLAVQAFLQMCNLPVKVVCRANAEYMSPSGKVPFIHVGNQVVSELGPIVQFVKAKGHSLSDGLDEVQKAEMKAYMELVNNMLLTAELYLQWCDEATVGEITIARYGSPYPWPLNHILAYQKQWEVKRKMKAIGWGNKTLDQVLEDVDQCCQALSQRLGTQPYFFNKQPTELDALVFGHLYTILTTQLTSDELSEKVKNYSNLLAFCRRIEQHYFEDWGKGRLS
**Q.** B1 was tested. Which binding did it give?
**A.** binds
